PubChem BioAssay AID624418 (National Center for Advancing Translational Sciences (NCATS), 2012)
Screen size: about 410,000 compounds; about 530 (0.13%) were called active. Inconclusive means that the source gave no clear call. Such entries were picked first, then a sample of the others. Calls come from the whole dose curve; as a rule, active = well fitted inhibition curve with a large enough effect; inconclusive = small, poorly fitted or top-dose-only effect, or another doubt; inactive = no such curve, though single readings can be large or run the other way. Where the call is inconclusive, the potency comes from a doubtful curve fit.

Assay: qHTS of GLP-1 Receptor Inverse Agonists: Cytotox Screen
Details: HEK293 cAMP-luciferase reporter cells, luminescence, 24 h; activity change, negative = inhibition: at 38.3 µM (top of the series) unless noted
How it was run: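 Here, cytotoxicity is scored as loss of luminescence. The MLSMR collection was tested on cells seeded in medium containing 10% Nu serum, with a 24 hr compound exposure preceded by 12 hours of culture.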
% is set by controls: 0 for no effect and ±100 for the full control effect; potency is the fitted concentration of half-maximal effect.

Compound	Potency	activity change, negative = inhibition
COc1cccc(-c2cnc3c(NC=O)cc(-c4ccccc4)cn23)c1	inconclusive: 7.94 µM [inhibitor, partial curve, poor fit]	–
CSc1cccc(NC(=O)C2CCCN(C(=O)c3cnn(-c4ccc(F)cc4)c3-n3cccc3)C2)c1 (centres undefined)	–	inactive: -3.73%
CC(C)(C)S(=O)N1Cc2cc(C(=O)NCc3ccc(Oc4ccccc4)cc3)nc(-c3cccc(-c4cc5ccccc5o4)c3)c2[C@@H]1CCO (some centres undefined)	–	inactive: -5.45%
CCN(CC)CCCN(C(=O)c1ccccc1F)c1nc(-c2ccc(OC)cc2)cs1	inconclusive: 10 µM [inhibitor, partial curve, poor fit]	–
CN(C(=O)CSc1cc(C(=O)c2nccn2C)c2ccccc2n1)c1ccccc1	inconclusive: 31.6 µM [inhibitor, single point]	–
CC1(C)C(c2cccs2)=[N+]([O-])C2(CCCCC/C2=N\NC(N)=S)N1O (centres undefined)	–	inactive: -15.9%
CCn1nc(C)c(/C=N/NC(=S)Nc2ccc(Cl)cc2Cl)c1C	inconclusive: 6.31 µM [inhibitor, partial curve, poor fit]	–
Cn1c(SCC(=O)Nc2ccc(Cl)cc2)nc(O)cc1=O	inconclusive: 28.2 µM [inhibitor, single point]	–
Cc1ccccc1NC(=O)CSc1nc(-c2ccccc2)cn1-c1ccccc1F	–	inactive: 0.924%
COc1cccc2oc(CCc3ccccc3)cc(=O)c12	inconclusive: 31.6 µM [inhibitor, partial curve, poor fit]	–
Cc1ccc(OCC(=O)N(Cc2ccco2)c2c(N)n(Cc3ccccc3)c(=O)[nH]c2=O)cc1C	inconclusive: 28.2 µM [inhibitor, single point]	–
O=C(c1ccccc1)N1N=C(c2ccc(F)cc2)CC1c1ccc(F)cc1 (centres undefined)	–	inactive: -2.96%
O=C(Nc1ccc(F)cc1)c1ccc(NC(=O)C2CCCO2)cc1 (centres undefined)	–	inactive: -3.07%
Cc1ccc(Cl)cc1N1CCN(C(=O)Cn2c(-c3cccs3)cc3cc(F)ccc32)CC1	–	inactive: 4.16%
CCCC(=O)NC(c1ccc(OC)cc1)c1c(O)ccc2ccccc12 (centres undefined)	inconclusive: 7.08 µM [inhibitor, partial curve, poor fit]	–
Nc1nonc1C(=O)NCCN=Cc1cc(Cc2ccccc2)cc(Br)c1O	inconclusive: 28.2 µM [inhibitor, single point]	–
C=CCNC(=S)Nc1c(N)n(C)c(=O)n(C)c1=O	inconclusive: 3.16 µM [inhibitor, full curve, poor fit]	–
S=C(N/N=C/c1ccco1)NC1CC2CCC1C2 (centres undefined)	–	inconclusive: -93.1% [inhibitor]
Cc1ccc(N2C(=O)C3C(C(=O)c4ccccc4)=NN(c4ccccc4)C3C2=O)cc1 (centres undefined)	–	inactive: 10.6% [at 1.53 µM]
O=C(Cc1ccccc1)Nc1ccc(NC(=S)NC(=O)c2ccccc2)cc1	inconclusive: 28.2 µM [inhibitor, single point]	–
CCOc1cc(/C=C2\C(=O)NN(c3ccccc3)C2=O)cc([N+](=O)[O-])c1O	inconclusive: 28.2 µM [inhibitor, single point]	–
OCOCCCn1c(C2CCCN2c2nc(-c3ccc(F)cc3)cs2)nc2cc(Cl)c(N3CCCCC3)cc21 (centres undefined)	–	inactive: -39.3%
COc1ccc(-c2cc3c(=O)n(CC(=O)Nc4cc(F)ccc4F)ccn3n2)cc1OC	–	inactive: 8.85%

Compound	Potency	activity change, negative = inhibition
C[n+]1c(-c2ccccc2)cc2c(=Cc3ccc([N+](=O)[O-])cc3)c3ccccc3n21	inconclusive: 6.31 µM [inhibitor, partial curve]	–
CN(C)c1ccc(-c2nc(-c3cccs3)c(-c3cccs3)[nH]2)cc1	–	inactive: -13.5%
CCNC(=S)Nc1scc(-c2ccccc2)c1C(=O)OCC	active: 10 µM	–
CCCCC(O)(c1ccccc1)C(CN1CCOCC1)c1ccccc1 (centres undefined)	–	inactive: -1.23%
CC1(C)N=C(SCC(=O)Nc2ccc(Cl)cc2)C(c2ccc(Cl)cc2)=N1	inconclusive: 28.2 µM [inhibitor, single point]	–
C[C@@H](C(=O)CC(=O)OC(C)(C)C)[C@@H](O)c1c(F)cccc1Cl	inconclusive: 2.51 µM [inhibitor, full curve]	–
NNC(=O)c1cc2sccc2s1	inconclusive: 3.55 µM [inhibitor, partial curve, poor fit]	–
COc1cc(NC(=O)Cn2ccn(-c3cc(C)cc(C)c3)c(=O)c2=O)cc(OC)c1	–	inactive: 3.75%
CCOC(=O)c1sc(NC(=O)Nc2ccccc2Cl)cc1C	inconclusive: 22.4 µM [inhibitor, single point]	–
Oc1ccc(-c2nnc(SCC3CCCCC3)o2)cc1	inconclusive: 15.8 µM [inhibitor, single point]	–
CC1CCN(c2ccccc2NC(=S)NC(=O)c2ccco2)CC1	inconclusive: 28.2 µM [inhibitor, single point]	–
Cc1cc(C(C)(C)C)cc(C)c1COC(=O)c1cccnc1	inconclusive: 28.2 µM [inhibitor, single point]	–
S=c1[nH]nc(-c2ccccn2)n1/N=C/c1cccc2ccccc12	–	inactive: 0.935%
CC(=O)c1cccc(-c2ccnc3c2CC(C(=O)NCc2cccs2)O3)c1 (centres undefined)	inconclusive: 1.78 µM [inhibitor, full curve, poor fit]	–
COc1ccc(-n2c(-c3ccc(Br)cc3)nc(=S)c3c2CCCC3)cc1	inconclusive: 11.2 µM [inhibitor, partial curve, poor fit]	–
CC1=CC(=O)Nc2ncccc2O1	inconclusive: 5.62 µM [inhibitor, full curve]	–
COc1ccc2nc(NC(=O)c3cccc(OCc4c(C)noc4C)c3)sc2c1	inconclusive: 3.55 µM [inhibitor, full curve]	–
CCOC(=O)c1c(NC(=O)C(NCCN(C)C)c2ccccc2)sc2c1CCCC2 (centres undefined)	active: 3.98 µM	–
CC(=O)Nc1cccc(Nc2nc3ccccc3n3c(C)nnc23)c1	inconclusive: 11.2 µM [inhibitor, partial curve]	–
CCCCNC(=S)NCC(c1ccccc1)c1c[nH]c2ccccc12 (centres undefined)	inconclusive: 12.6 µM [inhibitor, single point]	–
O=C(/C=C/c1ccccc1)N1CCN(Cc2cc(=O)n3nc(-c4ccccc4)sc3n2)CC1	–	inactive: 1.28%
COCCCNC(=S)NCCc1ccc(F)cc1	inconclusive: 11.2 µM [inhibitor, single point]	–
CS(=O)(=O)c1ccc([C@@H](O)[C@@H](CO)NC(=O)C(Cl)Cl)cc1	–	inactive: -1.76%

Compound	Potency	activity change, negative = inhibition
Cc1cccc(C2C3=C(CCCC3=O)N=C3c4ccccc4C(=O)C32)c1 (centres undefined)	inconclusive: 11.2 µM [inhibitor, partial curve, poor fit]	–
Cc1cccc(CCNS(=O)(=O)c2ccc(S(=O)(=O)N3CCCCC3)cc2)c1	inconclusive: 28.2 µM [inhibitor, single point]	–
COc1ccc(NC(=O)c2cc3cccc(OC)c3oc2=Nc2ccc(C(=O)O)cc2)cc1OC	–	inactive: -12.5%
COc1cccc(NC(=O)Cc2csc(NC(=O)Nc3ccccc3OC)n2)c1	inconclusive: 11.2 µM [inhibitor, single point]	–
Cc1ccc(C2=CC(C)(c3ccc(C)cc3)Nc3nc(C(F)(F)F)nn32)cc1 (centres undefined)	–	inactive: 15.5%
COc1ccc(-n2nnnc2/C=C\Nc2ccccc2C(=O)c2ccccc2)cc1	inconclusive: 3.55 µM [inhibitor, full curve]	–
COc1cccc(-c2cnc(NCc3ccccc3Cl)n2C)c1	inconclusive: 28.2 µM [inhibitor, single point]	–
Oc1ccccc1N=Nc1nc(-c2ccccc2)c(-c2ccccc2)[nH]1	inconclusive: 11.2 µM [inhibitor, partial curve, poor fit]	–
CC(=O)N1CCCc2cc(S(=O)(=O)N3CCCC(C(=O)Nc4ccc(C)c(C)c4)C3)ccc21 (centres undefined)	–	inactive: 0.696%
CC1(c2nnc(Cc3ccccc3)o2)CC(c2ccc(Cl)cc2)=NO1 (centres undefined)	inconclusive: 5.01 µM [inhibitor, full curve, poor fit]	–
Cc1ccccc1C(=O)Nc1nnc(CC(=O)N/N=C/c2ccco2)s1	–	inactive: 28%
COc1ccc(/C(C)=N/NC(=S)Nc2cc(C)ccc2C)cc1	active: 3.55 µM	–
C/C(CC(=O)Nc1cccc2c1CCCC2)=N\NC(=O)c1cccc2ccccc12	–	inconclusive: -32.5% [inhibitor]
CCOc1ccc(C(=O)NC2CCN(C(=S)NCc3ccco3)CC2)cc1	inconclusive: 7.08 µM [inhibitor, partial curve, poor fit]	–
CCCc1nn2c(C)c(-c3ccccc3)nc2s1	–	inactive: 0.351%
N#CC1(NC(=O)COC(=O)c2nccnc2N)CCCCC1	–	inactive: 7.57%
Cc1ccc(S(=O)(=O)N2CCC(=O)N(CCOCc3ccc(C(F)(F)F)cc3)CC2)cc1	inconclusive: 0.316 µM [inhibitor, full curve, poor fit]	–
CCC(C)[C@@H](NC(=O)OC(C)(C)C)c1nnc(S(=O)(=O)Cc2cccc(C)c2)o1 (some centres undefined)	inconclusive: 10 µM [inhibitor, partial curve, poor fit]	–
CCC(=O)NC(=S)Nc1cccc(Cl)c1N1CCCCC1	inconclusive: 12.6 µM [inhibitor, partial curve, poor fit]	–
CNc1nc2cc([N+](=O)[O-])c([N+](=O)[O-])cc2nc1NC	inconclusive: 7.94 µM [inhibitor, partial curve, poor fit]	–
Brc1ccc(-c2csc(Nc3nc(-c4ccc(Br)cc4)cs3)n2)cc1	inconclusive: 28.2 µM [inhibitor, single point]	–
COc1ccc(O)c(C(=O)/C=C/c2cc3ccccc3o2)c1	–	inactive: -16.2%
O=C(Cc1c[nH]c2ccccc12)N1CCN(S(=O)(=O)c2cccc(Cl)c2Cl)CC1	inconclusive: 31.6 µM [inhibitor, partial curve, poor fit]	–
